Assay results as given in PubChem BioAssay AID1030 (National Center for Advancing Translational Sciences (NCATS), 2008).
Among all 220,000 compounds or so, about 16,000 (7.3%) were called active. Inconclusive means that the source gave no clear call. Such entries were picked first, then a sample of the others. Calls come from the whole dose curve; as a rule, active = well fitted inhibition curve with a large enough effect (not every such curve was filed as active); inconclusive = small, poorly fitted or top-dose-only effect, or another doubt; inactive = no such curve, though single readings can be large or run the other way. No potency is given beside an inconclusive call; the fits are too rough.
Potency is the fitted concentration of half-maximal effect; tags give direction and shape of the fitted curve.

What follows are molecules tested against Aldehyde dehydrogenase 1A1 (Homo sapiens) (UniProt P00352) (assay: qHTS Assay for Inhibitors of Aldehyde Dehydrogenase 1 (ALDH1A1)). Conditions: Purified ALDH1A1, NADH fluorescence, propionaldehyde substrate; series mostly up to 75.3 µM.
Chain of UniProt P00352 (P00352 whole entry, looked up): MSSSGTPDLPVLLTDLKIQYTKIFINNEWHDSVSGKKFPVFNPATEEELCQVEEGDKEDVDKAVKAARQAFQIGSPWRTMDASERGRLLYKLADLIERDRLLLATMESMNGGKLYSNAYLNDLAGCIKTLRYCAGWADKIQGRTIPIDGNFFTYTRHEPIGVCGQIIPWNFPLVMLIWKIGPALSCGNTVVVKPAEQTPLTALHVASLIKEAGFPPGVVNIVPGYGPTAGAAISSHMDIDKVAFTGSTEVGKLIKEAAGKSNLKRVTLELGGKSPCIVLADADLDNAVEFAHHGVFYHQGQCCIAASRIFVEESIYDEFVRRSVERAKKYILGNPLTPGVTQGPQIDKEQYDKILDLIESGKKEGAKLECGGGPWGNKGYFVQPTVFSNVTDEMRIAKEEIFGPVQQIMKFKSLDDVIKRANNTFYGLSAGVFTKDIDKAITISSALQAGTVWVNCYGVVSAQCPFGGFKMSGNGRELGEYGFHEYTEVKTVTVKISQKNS
In the case of `Fc1ccc2[nH]c3c(N4CCSCC4)ncnc3c2c1`, the Potency is reported as inconclusive [inhibitor, single point].
`O=C(NCCC1=CCCCC1)c1cccc2c1C(=O)N(C1CCCCC1)C2` was tested, and the Potency was inconclusive [inhibitor, single point].
`COc1ccccc1-n1cnnc1SCC(=O)c1cc(C)n(Cc2cccs2)c1C` was tested, and the Potency was active: 1.26 µM.
In the case of `O=S(=O)(Nc1nc2ccccc2nc1-[n+]1ccccc1)c1ccc(Cl)cc1`, the Potency is reported as inconclusive [inhibitor, partial curve].
In the case of `COc1cc(CN2CCN(Cc3ccc(C)cc3)CC2)c([N+](=O)[O-])cc1OC`, the Potency is reported as active: 17.8 µM.
For `CC(C)c1ccc(C(=O)N2CCN(c3cnn(C)c(=O)c3Cl)CC2)cc1`, the Potency was inconclusive [inhibitor, single point].
For `O=C(c1snnc1-c1ccccc1)N1CCOCC1`, the Potency was “inactive”.
In the case of `O=C(CN(CCc1ccccc1)C(=O)CN1C(=O)COc2ccccc21)NCc1ccco1`, the Potency is reported as active: 8.91 µM.
With `N#Cc1cccc(CS(=O)(=O)c2nc3ccccc3s2)c1` the Potency was active: 14.1 µM.
`C=CCOC(=O)C1=C[C@H](C2CCCCC2)[C@@H](CCCO)[C@H](OCC)O1` was tested, and the Potency was inconclusive [inhibitor, partial curve].
For `CS(=O)(=O)N(CC(=O)NCCSCc1c(F)cccc1Cl)c1ccc2c(c1)OCO2`, the Potency was active: 2.51 µM.
`COC(=O)c1sc(-c2ccccc2)cc1NC(C)=O` was tested, and the Potency was inconclusive [inhibitor, single point].
In the case of `CCN1CCN(C(=S)Nc2ccc3nc4n(c(=O)c3c2)CCCCC4)CC1`, the Potency is reported as inconclusive [inhibitor, partial curve, poor fit].
`COc1ccc(N2C(=O)CSC23C(=O)N2c4c(cccc43)C(C)=CC2(C)C)cc1` (stereo not given) was tested, and the Potency was “inactive”.
In the case of `Cc1ccc2[nH]cc(C(=O)CN3CCN(C)CC3)c2c1`, the Potency is reported as “inactive”.
With `CCCCCCn1cnc2c(oc3nc4c(cc32)CCCC4)c1=O` the Potency was active: 3.55 µM.
In the case of `COc1ccc(NC2=NCC(=O)N2c2ccccc2)c(OC)c1`, the Potency is reported as “inactive”.
With `Cc1cc(C)n(CCNc2nc3nonc3nc2N2CCCCC2)n1` the Potency was “inactive”.
With `COc1ccc(NC(=O)CC2SC(=N)N(c3ccccc3)C2=O)c(OC)c1` (stereo not given) the Potency was inconclusive [inhibitor, single point].
`CC12CN(C(=O)c3ccco3)CC(c3ccccc3)(CN(C(=O)c3ccco3)C1)C2=O` was tested, and the Potency was inconclusive [inhibitor, single point].
In the case of `CS(=O)(=O)N(Cc1cc2ccccc2[nH]c1=O)C1CCCCC1`, the Potency is reported as inconclusive [inhibitor, single point].
With `O=C(Nc1ccc(N2CCCCC2)cc1)c1ccc2ccccc2n1` the Potency was “inactive”.
For `CCn1c(SCC(=O)N/N=C/c2ccc(C)o2)nnc1-c1ccc(C(C)(C)C)cc1`, the Potency was inconclusive [inhibitor, single point].
With `Cc1cc(C)n(CCC(=O)Nc2cccc(F)c2)n1` the Potency was “inactive”.
With `O=C(COC(=O)c1cn(-c2ccccc2)nc1-c1cccnc1)NC1CC1` the Potency was “inactive”.
`Cc1ccc(CNC(=O)CC2C(=O)Nc3c2c(=O)n(C)c(=O)n3Cc2ccccc2)cc1` (stereo not given) was tested, and the Potency was “inactive”.
For `CS(=O)(=O)c1ccc(CNC(=O)[C@H]2C[C@@H]2[C@H](NP(=O)(c2ccccc2)c2ccccc2)c2ccccc2)cc1`, the Potency was “inactive”.
For `CC(C)C(=O)NC(=S)N(Cc1ccccc1)Cc1ccccc1`, the Potency was “inactive”.
`COC(=O)C(C)Sc1snnc1-c1ccccc1` (stereo not given) was tested, and the Potency was inconclusive [inhibitor, partial curve].
In the case of `CSc1nc2c(c(=O)[nH]c(=O)n2C)n1C/C=C(\C)Cl`, the Potency is reported as active: 25.1 µM.
With `CCC(C)(C)n1nnnc1C(c1cc2cc(C)cc(C)c2[nH]c1=O)N1CCN(Cc2ccc3c(c2)OCO3)CC1` (stereo not given) the Potency was inconclusive [inhibitor, single point].
In the case of `COc1c(C)cc(C(=O)C2CCCN(C(=O)/C=C/c3ccccn3)C2)cc1C` (stereo not given), the Potency is reported as active: 14.1 µM.
For `CC(C)(C)c1ccc(-c2nnc(N)o2)cc1`, the Potency was “inactive”.
In the case of `CCN(CC)S(=O)(=O)c1ccc2oc(C(=O)NCc3ccc(F)cc3)c(C)c2c1`, the Potency is reported as “inactive”.
With `Cc1ccc(NC(=S)N2CCCC(c3nc4ccc(C)cc4[nH]3)C2)c(C)c1` (stereo not given) the Potency was “inactive”.
`O=C1CC(=O)N(c2cccc(F)c2)N1` was tested, and the Potency was inconclusive [inhibitor, single point].
With `CCOc1ccc(C(C)=O)cc1CSc1nnc(N)s1` the Potency was “inactive”.
For `C/C=C/Cn1c(SCc2ccccc2)nc2c1c(=O)[nH]c(=O)n2C`, the Potency was active: 14.1 µM.
`O=C(/C(=C\c1ccccc1)c1nc2ccccc2[nH]1)c1ccc(Cl)cc1` was tested, and the Potency was “inactive”.
`O=C(COC(=O)/C=C/c1ccccc1[N+](=O)[O-])NCC(F)(F)F` was tested, and the Potency was “inactive”.
In the case of `O=C(Nc1ccc(-c2nc3ccccc3[nH]2)cc1)c1cccc(N2C(=O)CCC2=O)c1`, the Potency is reported as inconclusive [inhibitor, single point].
With `CCOC(=O)N1CCN(CC(=O)Nc2cc(OCC)ccc2OCC)CC1` the Potency was inconclusive [inhibitor, single point].
With `COc1ccc(N(CC(=O)NC2CCCCC2)S(=O)(=O)c2cccnc2)cc1` the Potency was inconclusive [inhibitor, partial curve].
`Cc1cccc(C2=N/C(=C\c3cccnc3)C(=O)O2)c1` was tested, and the Potency was “inactive”.
With `Cc1nc(NCc2ccco2)c2c3c(sc2n1)CCC3` the Potency was inconclusive [inhibitor, single point].
`COc1cc2[nH]c3c(N4CCN(c5ccccn5)CC4)ncnc3c2cc1OC` was tested, and the Potency was inconclusive [inhibitor, single point].
For `COc1ccc(-c2oc3ccccc3c(=O)c2O)cc1`, the Potency was inconclusive [inhibitor, partial curve].
`O=C(O)c1ccc(-n2c(-c3ccccc3)n[nH]c2=S)cc1` was tested, and the Potency was inconclusive [inhibitor, single point].
For `CSc1ccccc1NC(=O)c1noc2c1CCC2`, the Potency was active: 25.1 µM.
In the case of `COc1cccc(CN2CCN(c3ncccn3)CC2)c1`, the Potency is reported as inconclusive [inhibitor, single point].
